Earlier results as cited in paper PMC12548419 (Journal of Virology, 2025).

Settings: cited from earlier work

## O=c1ccn([C@@H]2O[C@](F)(CO)[C@@H](O)[C@H]2O)c(=O)[nH]1 [4′-FlU, 4′-Fluorouridine]
Acidic buffers, 30°C, 7 days, HPLC
  chemical stability in acidic buffers: degradation of 4′-FlU in acidic buffers at 30 °C within 7 days
Aqueous solutions, especially acidic conditions (pH <4)
  chemical stability in aqueous solutions: poor chemical stability

## CC(=O)OC[C@@]1(F)O[C@@H](n2ccc(=O)n(COC(=O)c3cccnc3)c2=O)[C@H](OC(C)=O)[C@@H]1OC(C)=O [VV251 in its free base form]
Free base form
  stability and PK properties: favorable stability and PK properties
